In PMC9911399, “Two distinct binding modes provide the RNA-binding protein RbFox with extraordinary sequence specificity”:
Positions count from the first letter of the chain named. Some of the results follow.

T1: RBFOX1 RRM (Homo sapiens, UniProt Q9NWB1 109-208)
T1 sequence: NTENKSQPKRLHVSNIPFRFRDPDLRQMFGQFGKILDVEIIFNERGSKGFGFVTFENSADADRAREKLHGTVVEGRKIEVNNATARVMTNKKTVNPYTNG

B1: AGUUGAA (DNA:RNA)
RNA: GGGAGACCGGAAUUCAGAUUGUCCAGUUGAAUUAAAUCCCGUCGUAGCCACCA
DNA 1: CAATCTGAATTCCGGTCTCCC
DNA 2: TGGTGGCTACGACGGGATT
B2: ACAACCG (DNA:RNA)
RNA: B1 RNA with G26C, U27A, U28A, G29C, A30C, A31G
DNA 1: CAATCTGAATTCCGGTCTCCC
DNA 2: TGGTGGCTACGACGGGATT
B3: UGGAAAU (DNA:RNA)
RNA: B1 RNA with A25U, U27G, U28A, G29A, A31U
DNA 1: CAATCTGAATTCCGGTCTCCC
DNA 2: TGGTGGCTACGACGGGATT
B4: UCCGUAC (DNA:RNA)
RNA: B1 RNA with A25U, G26C, U27C, U28G, G29U, A31C
DNA 1: CAATCTGAATTCCGGTCTCCC
DNA 2: TGGTGGCTACGACGGGATT
B5: CAGAGUA (DNA:RNA)
RNA: B1 RNA with A25C, G26A, U27G, U28A, A30U
DNA 1: CAATCTGAATTCCGGTCTCCC
DNA 2: TGGTGGCTACGACGGGATT
B6: UUUGGUC (DNA:RNA)
RNA: B1 RNA with A25U, G26U, U28G, A30U, A31C
DNA 1: CAATCTGAATTCCGGTCTCCC
DNA 2: TGGTGGCTACGACGGGATT
B7: UUCCUCA (DNA:RNA)
RNA: B1 RNA with A25U, G26U, U27C, U28C, G29U, A30C
DNA 1: CAATCTGAATTCCGGTCTCCC
DNA 2: TGGTGGCTACGACGGGATT
B8: CAAUCGA (DNA:RNA)
RNA: B1 RNA with A25C, G26A, U27A, G29C, A30G
DNA 1: CAATCTGAATTCCGGTCTCCC
DNA 2: TGGTGGCTACGACGGGATT
B9: AGUGCGC (DNA:RNA)
RNA: B1 RNA with U28G, G29C, A30G, A31C
DNA 1: CAATCTGAATTCCGGTCTCCC
DNA 2: TGGTGGCTACGACGGGATT
B10: UGGACGU (DNA:RNA)
RNA: B1 RNA with A25U, U27G, U28A, G29C, A30G, A31U
DNA 1: CAATCTGAATTCCGGTCTCCC
DNA 2: TGGTGGCTACGACGGGATT
B11: UUGCCUC (DNA:RNA)
RNA: GGGAGACCGGAAUUCAGAUUGUCCUUGCCUCUUAAAUCCCGUCGUAGCCACCA
DNA 1: CAATCTGAATTCCGGTCTCCC
DNA 2: TGGTGGCTACGACGGGATT
B12: UAGUUUA (DNA:RNA)
RNA: B11 RNA with U26A, C28U, C29U, C31A
DNA 1: CAATCTGAATTCCGGTCTCCC
DNA 2: TGGTGGCTACGACGGGATT
B13: GGCUGGC (DNA:RNA)
RNA: B1 RNA with A25G, U27C, A30G, A31C
DNA 1: CAATCTGAATTCCGGTCTCCC
DNA 2: TGGTGGCTACGACGGGATT
B14: CCCCUGA (DNA:RNA)
RNA: B1 RNA with A25C, G26C, U27C, U28C, G29U, A30G
DNA 1: CAATCTGAATTCCGGTCTCCC
DNA 2: TGGTGGCTACGACGGGATT
B15: GUUAGGG (DNA:RNA)
RNA: B1 RNA with A25G, G26U, U28A, A30G, A31G
DNA 1: CAATCTGAATTCCGGTCTCCC
DNA 2: TGGTGGCTACGACGGGATT
B16: AACAUUG (DNA:RNA)
RNA: B1 RNA with G26A, U27C, U28A, G29U, A30U, A31G
DNA 1: CAATCTGAATTCCGGTCTCCC
DNA 2: TGGTGGCTACGACGGGATT
B17: AUCCUUG (DNA:RNA)
RNA: B11 RNA with U25A, G27C, C29U, C31G
DNA 1: CAATCTGAATTCCGGTCTCCC
DNA 2: TGGTGGCTACGACGGGATT
B18: CUGUCAU (DNA:RNA)
RNA: B11 RNA with U25C, C28U, U30A, C31U
DNA 1: CAATCTGAATTCCGGTCTCCC
DNA 2: TGGTGGCTACGACGGGATT
B19: GUAGAAC (DNA:RNA)
RNA: B11 RNA with U25G, G27A, C28G, C29A, U30A
DNA 1: CAATCTGAATTCCGGTCTCCC
DNA 2: TGGTGGCTACGACGGGATT
B20: UAACAUC (DNA:RNA)
RNA: B11 RNA with U26A, G27A, C29A
DNA 1: CAATCTGAATTCCGGTCTCCC
DNA 2: TGGTGGCTACGACGGGATT
B21: ACAGGCU (DNA:RNA)
RNA: B1 RNA with G26C, U27A, U28G, A30C, A31U
DNA 1: CAATCTGAATTCCGGTCTCCC
DNA 2: TGGTGGCTACGACGGGATT
B22: GCAAUGC (DNA:RNA)
RNA: B11 RNA with U25G, U26C, G27A, C28A, C29U, U30G
DNA 1: CAATCTGAATTCCGGTCTCCC
DNA 2: TGGTGGCTACGACGGGATT
B23: AUCCUAU (DNA:RNA)
RNA: B1 RNA with G26U, U27C, U28C, G29U, A31U
DNA 1: CAATCTGAATTCCGGTCTCCC
DNA 2: TGGTGGCTACGACGGGATT
B24: CAAACUA (DNA:RNA)
RNA: B11 RNA with U25C, U26A, G27A, C28A, C31A
DNA 1: CAATCTGAATTCCGGTCTCCC
DNA 2: TGGTGGCTACGACGGGATT
B25: GGUGUCA (DNA:RNA)
RNA: B1 RNA with A25G, U28G, G29U, A30C
DNA 1: CAATCTGAATTCCGGTCTCCC
DNA 2: TGGTGGCTACGACGGGATT
B26: GCUUUAU (DNA:RNA)
RNA: B1 RNA with A25G, G26C, G29U, A31U
DNA 1: CAATCTGAATTCCGGTCTCCC
DNA 2: TGGTGGCTACGACGGGATT
B27: CGGACAC (DNA:RNA)
RNA: B11 RNA with U25C, U26G, C28A, U30A
DNA 1: CAATCTGAATTCCGGTCTCCC
DNA 2: TGGTGGCTACGACGGGATT
B28: UAGACUA (DNA:RNA)
RNA: B11 RNA with U26A, C28A, C31A
DNA 1: CAATCTGAATTCCGGTCTCCC
DNA 2: TGGTGGCTACGACGGGATT
B29: GGACUUC (DNA:RNA)
RNA: B11 RNA with U25G, U26G, G27A, C29U
DNA 1: CAATCTGAATTCCGGTCTCCC
DNA 2: TGGTGGCTACGACGGGATT
B30: CUGGACU (DNA:RNA)
RNA: B11 RNA with U25C, C28G, C29A, U30C, C31U
DNA 1: CAATCTGAATTCCGGTCTCCC
DNA 2: TGGTGGCTACGACGGGATT
B31: UGACUCG (DNA:RNA)
RNA: B11 RNA with U26G, G27A, C29U, U30C, C31G
DNA 1: CAATCTGAATTCCGGTCTCCC
DNA 2: TGGTGGCTACGACGGGATT

What follows are binders tested against T1, RBFOX1 RRM (assay: EMSA; HiTS-Eq, 1 nM pool, 10 min; buffer printed only for the single-RNA assays: 10 mM Tris pH 7.5, 150 mM NaCl, 3.4 mM EDTA, 0.001% NP-40, 30 C). Conditions: tags: His6 N-terminal (pET28a); label: 5' 32P.
How it was run: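 Purified RbFox RRM, wild type or mutant, was incubated for 10 min in 50 µL with 1 nM of a 5′-radiolabelled RNA pool carrying 7 randomized nucleotides, whose flanks were annealed to DNA oligonucleotides, over a series of increasing protein concentrations. Unbound RNA was resolved on 8% native PAGE, cut out, reverse-transcribed, barcoded by PCR and sequenced on an Illumina HiSeq 2500. Relative association constants were derived from changes in read counts for each RNA species versus the control reaction and normalised to the cognate motif.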

First: B1
Second: B2
The binding signal of the first is higher: 0.0178 KA relative to UGCAUGU for the first, 0.000637 KA relative to UGCAUGU for the second.

Compared with B3, B4 is lower in binding signal: 0.0171 KA relative to UGCAUGU for the first, 0.00621 KA relative to UGCAUGU for the second.

Compared with B5, B6 is higher in binding signal: 0.00335 KA relative to UGCAUGU for the first, 0.0248 KA relative to UGCAUGU for the second.

First: B7
Second: B8
The binding signal of the first is higher: 0.00418 KA relative to UGCAUGU for the first, 0.00345 KA relative to UGCAUGU for the second.

First: B9
Second: B10
The binding signal of the first is lower: 0.0166 KA relative to UGCAUGU for the first, 0.0265 KA relative to UGCAUGU for the second.

Compared with B11, B12 is lower in binding signal: 0.017 KA relative to UGCAUGU for the first, 0.0102 KA relative to UGCAUGU for the second.

First: B13
Second: B14
The binding signal of the first is higher: 0.0165 KA relative to UGCAUGU for the first, 0.00552 KA relative to UGCAUGU for the second.

First: B15
Second: B16
The binding signal of the first is lower: 0.00439 KA relative to UGCAUGU for the first, 0.006 KA relative to UGCAUGU for the second.

Compared with B17, B18 is higher in binding signal: 0.00658 KA relative to UGCAUGU for the first, 0.00999 KA relative to UGCAUGU for the second.

Compared with B19, B20 is lower in binding signal: 0.00867 KA relative to UGCAUGU for the first, 0.00302 KA relative to UGCAUGU for the second.

First: B21
Second: B22
The binding signal of the first is lower: 0.00716 KA relative to UGCAUGU for the first, 0.0163 KA relative to UGCAUGU for the second.

First: B23
Second: B24
The binding signal of the first is lower: 0.00057 KA relative to UGCAUGU for the first, 0.00187 KA relative to UGCAUGU for the second.

First: B25
Second: B26
The binding signal of the first is higher: 0.00539 KA relative to UGCAUGU for the first, 0.00507 KA relative to UGCAUGU for the second.

Compared with B27, B28 is lower in binding signal: 0.0177 KA relative to UGCAUGU for the first, 0.0051 KA relative to UGCAUGU for the second.

Compared with B29, B30 is lower in binding signal: 0.02 KA relative to UGCAUGU for the first, 0.00842 KA relative to UGCAUGU for the second.

With B31 the binding signal was 0.0221 KA relative to UGCAUGU.
